From PubChem BioAssay AID1508642 (National Center for Advancing Translational Sciences (NCATS), 2021)
Out of some 43,000 compounds screened, about 200 (0.47%) were called active. Another 12% or so got no clear call; they are omitted. Calls follow the shape of the dose curve; as a rule, active = well fitted cell-killing curve with a large enough effect; inconclusive = small, poorly fitted or top-dose-only effect, or effect the other way; inactive = flat fitted curve, though single readings scatter. The list shows a part of the results.

Assay: Cell viability qHTS assay in S16 Pmp22-F2sN cells; also: nearly all actives have a fitted effect of over 65% in size
Settings: S16 Pmp22-F2sN Schwann cells (luciferase reporters placed in the Pmp22 gene) viability, CellTiter-Glo, 24 h; series mostly up to 57.5 µM; activity change, negative = cytotoxicity: at the top concentration
Source text: Assay Provider: Jim Inglese Ph.D. National Center for Advancing Translational Science, National Institutes of Health, Rockville, MD CMT is a heterogeneous group of neurological disorders that affect approximately 1 in 2,500 people. In particular, the most common form of CMT, CMT1A is genetically linked to the duplication of the PMP22 gene which leads to Schwann cell overexpression, thus manifesting itself as a typical case of dose-sensitive diseases. To identify small molecule compounds that can mediate the expression of PMP22 we developed a phenotypic assay screening strategy by utilizing genome editing techniques to construct Schwann cell lines containing novel reporter technology to monitor the transcriptional or translational regulation of PMP22. For high sensitivity we use a bioluminescent reporter system embedded in the 3' UTR of the PMP22 gene (S16(c9) Pmp22-F2sN) to identify compounds that inhibit gene expression. […] We can further discriminate the effect of all transcriptionally active molecules on PMP22 translation or stability with an assay that incorporates a short NLuc peptide (HiBiT) at the C-terminus of expressed PMP22 (S16(f8) PMP22-HiBiT) allowing alpha complementation and luminescence detection of membrane-associated PMP22 protein. These assays were screened against the NCATS Sytravon Library Collection. Miniaturization of these assays to 1536-well plate format for quantitative high throughput screening (qHTS) yielded rich data sets immediately from the qHTS assay (S16(c9) Pmp22-F2sN), when compared with data from a cell viability assay (Cell TiterGlo) to identify compounds that decreased the output signals through cellular toxicity to streamline the selection process of actives for subsequent characterization using the HiBiT assay (S16(f8) PMP22-HiBiT).
Cell viability assay in S16 Pmp22-F2sN cells PROTOCOL TABLE (format as described by Inglese J, Shamu CE and Guy RK. 2007) SEQUENCE No. (e.g., 1, 2, 3, etc.); […] (e.g., Cells, Incubation, Reagent, etc.); VALUE and DESCRIPTION. 1. Cells. Add 500-1,000 cells in 4 uL in growth media (DMEM High Glucose, No Phenol Red media + 10% heat-inactivated FBS + 1% Pen/Strep supplemented media) per well into Greiner 1536-well white/solid bottom high base, TC-treated plates. 2. Compounds. Library compounds and controls added at 23nL per well, transferred by Pin Tool. 3. Incubation. Incubate plates at 37C, 5% CO2, 95% RH for 24 h. 4. Reagent. Add 3uL CellTiter-Glo per well of Greiner 1536-well plates. 5. Incubation. Incubate plates at room temperature for 15 min., protect from light. 6. Detector. FLuc luminescence measured using CCD-based camera (Viewlux). NOTES (numbers refer to Sequence numbers above; values are from representative experiments) 6. Luminescence Read: Clear filter; Exposure = 1 sec, Gain = High, Speed = Slow, Binning = 2X REFERENCES: 1. Inglese J, Shamu CE and Guy RK, Reporting data from high throughput screening of small molecule libraries, Nature Chemical Biology, 2007, 3(8): 438-441. doi.org/10.1038/nchembio0807-438 2. Yasgar A, Shinn P, Jadhav A, Auld DS, Michael S, Zheng W, Austin CP, Inglese J and Simeonov A, Compound Management for Quantitative High-Throughput Screening. J. Assoc. Lab. Auto., 2008, 13: 79-89. doi: 10.1016/j.jala.2007.12.004
% is scaled to controls: 0 for no effect and ±100 for the full control effect.

SMILES | activity change, negative = cytotoxicity
COc1ccc(C(=O)N2CCN(c3nc4c(OC)cccc4s3)CC2)cc1OC | inactive: -27.1%
CCCn1c(=N)c(C(=O)NC2CCCCC2)cc2c(=O)n3cc(C)ccc3nc21 | inactive: 13.2%
CCOC(=O)c1cc(-c2ccccc2)n(-c2cccc(C(=O)NC(C)(C)C)c2)c1C | inactive: -28.8%
CCOc1ccc(S(=O)(=O)NCc2cccn2Cc2cccc(C)c2)cc1 | inactive: 5.45%
CC(C)COc1ccc(C(=O)N(Cc2cccc(F)c2)C2CCS(=O)(=O)C2)cc1 (centres undefined) | inactive: 6.05%
CCOC(=O)c1cnc2ccc(OCC)cc2c1NCCc1ccc(OC)c(OC)c1 | inactive: 12.8%
CCN1CCc2c(sc(-n3cccc3)c2C(CCC(C)C)NC(=O)NCCC(=O)OC)C1 (centres undefined) | inactive: 20.8%
CCc1cccc(C)c1NC(=O)C(NS(=O)(=O)c1ccc2c(c1)CCC(=O)N2)c1ccccc1 (centres undefined) | inactive: -3.28%
CCCn1c2ccccc2c2cnn(CC(=O)NCCCOC(C)C)c(=O)c21 | inactive: 11.2%
O=C(Nc1ccc(F)cc1)Nc1nnc(SCC(=O)N2CCCCC2)s1 | inactive: -17.3%
Cc1cccc(CNC(=O)CN2CC(C)Sc3ccccc32)c1 (centres undefined) | inactive: 8.32%
CC(=O)Nc1ccc(NC(=O)CN2C(=O)CCc3cc(S(=O)(=O)N4CCCCC4)ccc32)cc1 | inactive: -14.4%
COc1ccc(C)cc1NS(=O)(=O)c1cc(Br)cc2c1N(C(C)=O)C(C)C2 (centres undefined) | inactive: 6.35%
Cc1c(C(=O)N(Cc2cccc(Cl)c2)Cc2ccco2)oc2ccccc12 | inactive: 5.57%
Cc1c(Cl)cccc1-n1nnc(-c2nc(-c3ccc4c(c3)OCO4)no2)c1C | inactive: -0.549%
COc1cccc(NC2=CC(c3ccc(C(C)C)cc3)N(c3cccc(OC)c3)C2=O)c1 (centres undefined) | inactive: -15.2%
COc1ccc(NC(=O)CCS(=O)(=O)c2cc3c4c(c2)CCN4C(=O)CC3)cc1OC | inactive: -11.1%
CCC(C(=O)Nc1ccc(F)cc1F)n1nc(-c2ccccc2)c2c(c1=O)CCCC2 (centres undefined) | inactive: -11.4%
COc1cccc(CNC(=O)CSc2nnc(C)c3c(C)n(-c4ccccc4)nc23)c1 | inactive: -2.72%
O=C(c1cccn1-c1nnc(N2CCCC2)s1)N1CCN(c2ccc(F)cc2)CC1 | inactive: -4.54%
Cc1cccc(OCC(=O)NCc2ccc3c(c2)CCN3C(=O)c2ccc(Cl)cc2)c1 | inactive: -3.78%
O=C(c1ccc(F)cc1)N1CCN(CCc2ccncc2)CC1 | inactive: 5.91%
COc1ccc(-c2nnc(SCC(=O)Nc3ccc(C)c(Cl)c3)nc2-c2ccc(OC)c(OC)c2)cc1OC | inactive: 1.65%
CCOc1ccc(NC(=O)c2c(NC(=O)c3ccncc3)sc3c2CCC(C(C)(C)C)C3)cc1 (centres undefined) | inactive: -0.378%
COc1ccc(NC(=O)c2ccco2)cc1NC(=O)COc1cc(C)ccc1C(C)C | inactive: -0.486%

SMILES | activity change, negative = cytotoxicity
Cc1nc(N)c(S(=O)(=O)c2ccccc2)c(Nc2ccc(Br)cc2)n1 | inactive: 1.55%
COc1ccc(Cl)cc1S(=O)(=O)N1CCC(c2ccncc2)CC1 | inactive: -16.2%
CC(=O)N1c2ccccc2CC1C(=O)N1CCN(c2cc(Cl)ccc2C)CC1 (centres undefined) | inactive: -14.8%
CCc1ccc(NC(=O)Cn2nnc(C(=O)NCCc3ccccc3)c2N)cc1 | inactive: 2.47%
O=C(NCc1cccc(F)c1)C1CCN(c2nn3cc(-c4ccc(F)cc4)nc3s2)CC1 | inactive: -3.21%
N#Cc1ccccc1Cn1c(=O)n(-c2ccccc2)c(=O)c2c3c(sc21)CCC3 | inactive: 13.1%
CCOc1ccccc1NC(=O)Cn1c(=O)n(CCCCC(=O)NCCCOC)c(=O)c2ccccc21 | inactive: 13.8%
Cc1ccc2[nH]c3c(=O)n(CC(=O)NCCCN4CCN(c5ccc(F)cc5)CC4)ncc3c2c1 | inactive: 0.718%
CCc1ccccc1N(C)C(=O)c1cc2c(Cl)nc3ccc(C)cc3c2s1 | inactive: 23.1%
COCCCNC(=O)C1CCN(C(=O)c2ccc(-n3ccc4ccccc43)s2)CC1 | inactive: -8.45%
Cc1cc(C)cc(N(CC(=O)Nc2ccc(C)cc2Cl)S(=O)(=O)c2c(C)[nH]c(=O)[nH]c2=O)c1 | inactive: 16%
CC1CCN(S(=O)(=O)c2ccc3c(c2)oc(=O)n3CC(=O)N2CCCCC2)CC1 | inactive: -1.91%
Cc1ccccc1CNCCSc1nnnn1C | inactive: 6.11%
Cc1cccc(C)c1NC(=O)c1nc(SC(C)C)ncc1Cl | inactive: -15.8%
O=C(Nc1ccc(O)c(-c2nc3ccccc3o2)c1)c1ccc(-c2cccc(Cl)c2)o1 | inactive: 6.99%
COC(=O)c1ccc(-n2nnc(-c3nsc(NC(=O)c4ccc(Cl)cc4)n3)c2C)cc1 | inactive: -6.59%
O=c1c(NCCc2ccc(Cl)cc2)nccn1-c1ccccc1 | inactive: -19%
COc1ccccc1NC(=O)CCNS(=O)(=O)c1ccc2c(c1)CCN2C(=O)C1CC1 | inactive: -11.4%
Cc1ccccc1CNC(=O)Cc1csc2ccccc12 | inactive: -5.41%
CCN(CC)C(=O)c1sc2c(c1C)c(=O)n(Cc1ccccc1)c(=O)n2CC(=O)Nc1ccc(OC)cc1 | inactive: -15.4%
CCN(Cc1ccccc1)C(=O)CCS(=O)(=O)c1cc(Br)cc2c1N(C(=O)C1CC1)CC2 | inactive: -4.16%
CN(c1ccccc1)S(=O)(=O)c1nnc(NC(=O)c2cccs2)s1 | inactive: 1.49%
CCOC(=O)c1c(C)oc2ccc(N(C(=O)c3ccncc3)S(=O)(=O)c3ccc(F)cc3)cc12 | inactive: -12.4%
COc1ccc(OC)c(CCNC(=O)c2cc3cccc4c3n2CCS4)c1 | inactive: -8.68%
